Measured values taken from the supplement of paper PMC3334620.
Whole data set: some 33,000 sequences, median “E-score (-0.5 to 0.5)” near -0.016, cut for the highest 2% near 0.32. The list shows a part of the results.

Biological target: T1, Stp1 (UniProt B3LFK1)
T1 sequence: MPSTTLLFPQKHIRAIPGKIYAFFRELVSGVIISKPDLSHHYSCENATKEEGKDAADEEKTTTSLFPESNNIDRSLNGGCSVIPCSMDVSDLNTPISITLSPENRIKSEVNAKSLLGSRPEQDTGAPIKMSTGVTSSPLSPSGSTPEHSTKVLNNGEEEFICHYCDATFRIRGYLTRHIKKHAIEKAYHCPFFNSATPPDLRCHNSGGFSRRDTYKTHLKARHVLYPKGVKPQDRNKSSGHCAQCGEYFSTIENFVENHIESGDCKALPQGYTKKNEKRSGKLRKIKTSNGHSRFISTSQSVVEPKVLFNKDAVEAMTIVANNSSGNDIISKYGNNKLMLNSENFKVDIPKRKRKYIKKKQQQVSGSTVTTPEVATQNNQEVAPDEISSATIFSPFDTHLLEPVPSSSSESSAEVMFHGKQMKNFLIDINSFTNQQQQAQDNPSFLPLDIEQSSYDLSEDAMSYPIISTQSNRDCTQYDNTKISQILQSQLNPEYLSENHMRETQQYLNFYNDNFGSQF
Experiment: PBM E-score (8-mer binding enrichment) (E-score (-0.5 to 0.5)); higher = stronger / more preferred TF binding; most listed sequences are background and not binding sites
Settings: protein concentration: 200 nM; construct: GST-full length
Method in brief: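 Yeast transcription factors carrying a GST tag, as full-length proteins or DNA-binding domains, were produced by PURExpress in vitro transcription/translation. About 100-200 nM protein was applied to universal all-10-mer Agilent arrays, double-stranded by primer extension on fresh or once-stripped slides. Bound protein was detected with fluorescent anti-GST, and scans were normalised with masliner. The Universal PBM Analysis Suite gave each ungapped eight-base word, pooled with its reverse complement, an E-score, a modified Wilcoxon-Mann-Whitney statistic.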

Sequence	PBM E-score
CCTTTACC	-0.05
CGATTGCG	0.0823
CTGCGCCC	-0.113
ACTTGATA	0.0701
AAGCGATA	-0.0347
AGTTCGCC	0.159
ATGTGGCA	0.27
AATGCTAG	-0.0505
CGGACGGC	0.442
AAGTAATG	-0.0435
CGCTACAA	-0.05
TATGATGA	0.162
GTCAATAA	-0.0639
ACCTTATG	-0.0423
CAACTCTA	-0.153
CGGAGATC	-0.221
GACCCGTA	-0.109
CTACTAAA	0.00052
CTTGGTTA	-0.0742
CTGAGTGC	-0.236
CAGTCGGA	-0.127
ATAGATGC	0.0729
AGATCTAC	-0.116
GCGGGCGA	0.0158
AAGTTTTG	0.078

Sequence	PBM E-score
CGAAACGA	0.0741
ATAAATAC	0.31
GTAAAGCA	0.142
CCGGGCCA	-0.261
GAGAAGGA	-0.189
CACTATAG	0.00757
AGCTCGGC	0.2
CACATTAC	0.157
AAAATGGG	-0.0484
AGCCACTA	0.0379
CGGTCATC	-0.221
CCACGACC	-0.219
GCTACATA	0.0431
AGCTACTC	-0.262
GAAGGTAA	0.184
CTCAGATC	-0.00315
GAATCTCA	-0.178
CCCCACGG	0.102
GGATTTAC	0.172
CTCTTCTA	0.0839
ACGTGCGG	0.357
ATATCCTA	0.0646
AAGAACTG	0.101
ACTAATGC	0.21
ACGCCGTC	0.41

Sequence	PBM E-score
AATCATTG	-0.118
CTCAGACA	0.0994
TGTGGGAA	-0.109
CCGACCTC	-0.311
GGCGTCGA	0.306
ATCGTCCA	-0.186
ATACGCAC	0.159
AGCCTGAT	-0.0416
CGTACACC	-0.0591
GCCCCGAC	-0.349
TACTGAAA	0.282
ACGGAGTA	-0.0652
AGACATTG	-0.194
AACCAGTT	0.143
AGCGCCGG	0.174
GGCTAAGA	-0.0906
GGTGATCA	-0.0543
CAGGCTCA	0.00607
GGTTATGA	0.0343
AAGCTCCC	-0.284
TATTATAA	0.0956
ACGTACAC	0.0509
AGATGTCA	-0.0926
AGCCTCGG	-0.0283
AAAGGGCT	-0.0542

Sequence	PBM E-score
ACGCGCGT	0.186
GCAGTTGA	0.0711
CCCCAGCA	-0.326
AACTGCCC	-0.192
TACCAAGA	0.0709
ATGTCGGC	-0.0688
ACAGTTTC	0.063
AGGCCACT	-0.0843
TCGCAGAA	-0.046
AATAGTCT	-0.101
TACACCAA	-0.0511
AAGAGCCC	-0.0153
CCACAGGA	-0.0282
CCAAAACG	0.107
ACTTCAAT	0.119
ATTGTTGC	0.153
AGTCCAAA	0.0426
ATTCCCTA	0.0472
CCTTTTCA	-0.0257
AAGCGCCA	0.0796
CTGGCGTC	-0.144
CACCCGAC	-0.0916
CGGATATA	0.29
CTTTGGAA	0.026
CTACAATC	0.161

Sequence	PBM E-score
ATCGCGTG	0.0349
CAATACAG	-0.0422
CCGACAGG	-0.13
AAATTCGC	0.117
CGCTGCTC	-0.111
CCTTAATC	-0.0629
TAAACAAA	0.154
CGGCTTGA	0.0356
CAACGCCC	0.0959
CACCTCTA	-0.0826
CTGTTAAC	0.14
ACTTAAAG	-0.176
ACCACCCC	-0.249
AATGTTAT	0.0148
CCTTACCA	-0.0761
CCAGCACC	-0.269
AGGCTACA	-0.172
ACTCTCAA	-0.143
CAGGGCCC	-0.194
CGTATTTA	0.232
GGCCAGTA	-0.0609
AGATCCCG	0.0532
AAGGTTAG	-0.217
CGATCAGC	-0.0192
ATGAGGGC	-0.122

Sequence	PBM E-score
GGACCTCA	-0.179
GCTTCAAA	0.187
AACGTGCC	0.286
GGCACTGA	0.312
AGCTTCTG	-0.133
CTAACTTC	0.00261
AGAACATC	-0.0712
AATGTGCG	0.18
ACAAAGGC	-0.0179
GAAATTCA	0.108
ACTGATTC	0.0186
CACGTGCA	0.14
CTTAGCAA	0.0573
CCGCAAGC	-0.0825
GTCGCGAC	0.299
AACCTATG	0.053
CGGTAAGC	-0.134
AGCTTAAA	0.00683
GGGCTACA	-0.0511
TGCGGACA	0.281
ACTCAAGT	0.00487
AGTGTAGG	-0.0236
AGATTTTG	0.0695
CACAGAGC	0.0781
GACATAAC	0.0645

Sequence	PBM E-score
CACCCGCA	-0.164
AACAACAT	-0.00072
GCGCTTAC	0.0962
ACAGGGAC	-0.166
CTCCGTGC	0.228
ACACTATA	0.0726
CATGAGGC	0.185
GTCTATAA	0.0442
AGCTCCAT	-0.202
GGTATATA	0.142
CTTATCGA	0.0995
TAAACCCA	-0.14
ATCAACAG	0.143
AGATAGAA	0.0271
ACAAATCG	0.0375
AGCATATG	-0.117
ATTGGGGC	-0.0829
AAGGCCCG	-0.146
AAGATAGG	-0.292
AAGAGCGT	0.00991
GCTACGCA	-0.0274
ATTCACAC	0.19
